Each structure is given as a SMILES string. Out of some 52,000 compounds screened, about 1,700 (3.3%) were called active. Rule as the data show it: active = survival mostly below about 52% (no sharp cut-off); inactive = mostly above about 56%. This is one part of the list.

The test system of this experiment is Wild type. Description: growth inhibition of S. aureus wild type versus tarO mutant, primary screen, teichoic acid synthesis inhibitors, RN4220, OD600 (AID 463173). The note with it: S. aureus RN4220 wild type/DeltatarO growth, OD600, 18 h, hits give low values, screened at 18.75 µg/mL (by protocol).
Take `CCS(=O)(=O)N1CC(=O)N(c2cc(C)ccc2C)C(C)(C(=O)NC2CCCCC2)C1` (stereo not given): the survival was inactive: 59%.
Regarding `Cc1ccc(Cl)cc1NC(=O)N1CCC2(CC1)Oc1ccccc1C(=O)N2Cc1ccccc1F`, the survival is inactive: 127%.
Take `COc1ccc(-c2cn3c(n2)sc2cc(C(=O)NC4CCCCCC4)ccc23)cc1`: the survival was inactive: 95%.
Regarding `CCOC(=O)CN1C(=O)C(C)(C)Oc2ccc(C(=O)NC(C)C)cc21`, the survival is inactive: 117%.
Take `Cc1cccc(NC(=O)C(=O)NCCc2sc(-c3ccccc3)nc2C)c1C`: the survival is inactive: 63%.
For the compound `Cc1c(Cl)cccc1NC(=O)C(CCS(C)(=O)=O)N1Cc2ccccc2C1=O` (stereo not given), the survival was inactive: 74%.
To `Cc1ccccc1CN(Cc1ccco1)C(=O)c1cc2ccccc2oc1=O` belongs inactive: 97%.
Consider `CC(=O)c1c(C)oc2ccc(N(C(=O)Oc3ccccc3)S(=O)(=O)c3ccccc3)cc12`, for which the survival was inactive: 78%.
Turning to `Cc1ccc(S(=O)(=O)c2c(Nc3cc(C)ccc3C)sc(C(=O)c3ccc4c(c3)OCO4)c2N)cc1`, the survival is inactive: 152%.
As to `CCCS(=O)(=O)N1CCN(S(=O)(=O)c2ccccc2)CC1`, the survival was inactive: 93%.
Turning to `CC(CNC(=O)c1cc(-c2ccccc2)n[nH]1)c1ccccc1` (stereo not given), the survival is inactive: 68%.
On to `CC1CCCN(c2c(S(=O)(=O)c3ccccc3)cnc3ccc(Cl)cc23)C1` (stereo not given), for which the survival is inactive: 121%.
Consider `COc1ccc(CCN2C(=O)N(c3ccc(C)cc3)C(=O)C2CC(=O)Nc2ccc(F)cc2)cc1` (stereo not given), for which the survival was inactive: 76%.
Consider `Cc1nn(C(=O)COc2ccccc2Br)c(C)c1Sc1ccccc1`, for which the survival is inactive: 57%.
For `Nc1cc(=O)nc(SCC(=O)Nc2ccc(F)cc2)n1-c1cccc(Cl)c1`, the survival is inactive: 143%.
With `Cc1cccc(N2CCN(C(=O)c3c(C)oc4ncnc(N5CCOCC5)c34)CC2)c1C`, the survival is inactive: 78%.
For `COc1ccc(C)cc1NC(=O)c1cc(S(=O)(=O)N2CCC(C)CC2)cn1C`, the survival was inactive: 45%.
The figure for `CCc1ccc(NC(=O)C(NS(=O)(=O)c2cccc3nsnc23)c2ccccc2)cc1` (stereo not given) is inactive: 71%; for `COc1ccc(CN2C(=O)N(c3ccc(F)cc3)C(=O)C2CC(=O)Nc2cc(OC)cc(OC)c2)cc1` (stereo not given) it is inactive: 55%.
To `Cc1cccc(NC(=O)c2sc3nc(-c4ccccc4)cn3c2C)c1C` belongs inactive: 120%.
`COc1ccc2c(CNCc3ccccc3OC)c(C(=O)O)n(Cc3ccc(F)cc3Cl)c2c1`: the survival was inactive: 100%.
With `CCc1ccc(NC(=O)C2CCC(CNS(=O)(=O)c3ccc4c(c3)C(C)(C)C(=O)N4C)CC2)cc1` (stereo not given), the survival is inactive: 90%.
With `CCN1/C(=C\C=C2C(=O)OC(C)(C)OC2=O)Sc2ccccc21`, the survival was inactive: 94%.
In the case of `COc1cccc(NC(=O)c2sc3nc(C)c(C(=O)Nc4ccc(Cl)cc4)c(-c4ccc(Br)cc4)c3c2N)c1`, the survival was inactive: 145%.
As to `O=C(CSc1n[nH]c(-c2ccccc2)n1)N1CCN(c2ccccc2F)CC1`, the survival is inactive: 129%.
Regarding `COc1ccc(N(CC(=O)Nc2cccc(C(C)=O)c2)S(=O)(=O)c2ccccc2)c(OC)c1`, the survival is inactive: 72%.
Take `Cc1cc(OCCCn2c(CCNC(=O)C3CCCCC3)nc3ccccc32)ccc1Cl`: the survival is active: 0%.
With `COc1ccc2c(Sc3ccc(C)cc3)c(C(=O)NCCc3ccccc3)[nH]c2c1`, the survival was inactive: 88%.
`COc1ccc(-c2c3c(=O)n(C)c(=O)n(C)c3c3n2-c2ccccc2NC3c2ccc(O)cc2O)cc1` (stereo not given): the survival was active: -8%.
The figure for `O=C(CSc1nc(-c2cccs2)nc2cc(=O)[nH]n12)Nc1cccc(C(F)(F)F)c1` is inactive: 128%.
On to `OCc1cnc(SCc2ccc(F)cc2)n1Cc1ccc(F)cc1`, for which the survival was inactive: 85%.
Take `CCOc1ccc(C(=O)N(Cc2cc(OC)c(OC)c(OC)c2)c2ccccn2)cc1`: the survival was inactive: 83%.
In the case of `O=C(Nc1nc2n(n1)C(c1ccc(Cl)cc1)C=C(c1ccccc1)N2)c1ccco1` (stereo not given), the survival was inactive: 55%.
`Cc1nn(C)c2c1c(C(F)(F)F)cc(=O)n2C(C)C(=O)NCCc1ccccc1` (stereo not given): the survival is inactive: 84%.
The figure for `CCOC(=O)C1=C(C)NC(=O)NC1c1cn(-c2ccccc2)nc1-c1ccc(OC(C)C)cc1` (stereo not given) is inactive: 60%.
The figure for `O=C(Cn1c(CC(=O)N2CCCC2)nc2ccccc21)NCc1ccccc1` is inactive: 99%.
For `COCC(=O)N(CC1CCCO1)c1nnc(C)s1` (stereo not given), the survival is inactive: 106%.
For `COc1ccc(CCNC(c2ccc(F)cc2)c2nnc(-c3ccccc3Cl)o2)cc1OC` (stereo not given), the survival is inactive: 49%.
For the compound `O=C(Cn1cnc2onc(-c3ccc(F)cc3)c2c1=O)Nc1ccc(F)c(Cl)c1`, the survival is inactive: 72%.
`O=C(CN1c2ccccc2S(=O)(=O)c2ccccc21)Nc1ccccc1Cl`: the survival was inactive: 65%.
Consider `O=C(c1ccc(F)cc1)N1CCC(c2nc(-c3ccc(S(=O)(=O)N4CCCC4)cc3)no2)CC1`, for which the survival was inactive: 89%.
As for `NC(=O)CSc1nnc(Cn2cnc3ccccc32)o1`, the survival was inactive: 114%.
On to `COc1ccccc1N(CC(=O)Nc1ccc2c(c1)OCO2)S(=O)(=O)c1ccc(C)cc1`, for which the survival is inactive: 105%.
As for `CCCOc1ccc(-c2nonc2NC(=O)c2oc3ccc(Cl)cc3c2C)cc1OCCC`, the survival is inactive: 89%.
In the case of `N#C/C(=C\c1cccnc1)C(=O)Nc1ccccc1`, the survival is inactive: 109%.
To `O=C(O)CCC(=O)Nc1nc(-c2ccccc2)cs1` belongs inactive: 106%; to `CCOc1ccc(S(=O)(=O)c2cn(Cc3ccccc3C)c3ccc(OC)cc3c2=O)cc1`, inactive: 94%.
For `CCc1nn(CC(=O)NCCCN2CCN(CC)CC2)c(=O)c2cc3occc3n12`, the survival is inactive: 135%.
For the compound `Cc1ccc2nc(COc3ccccc3NC(=O)c3ccccc3F)cc(=O)n2c1`, the survival is inactive: 80%.
The figure for `Cc1ccc2c(c1)c(CC(=O)Nc1ccc(C)c(F)c1)c(C(=O)O)n2C` is inactive: 66%; for `CCOc1cccc(C2c3[nH]c4ccccc4c3CCN2C(=O)CSCc2ccc(F)cc2)c1` (stereo not given) it is inactive: 127%.
Regarding `CCc1cccc(NC(=O)C2Cc3ccccc3N2C(=O)c2ccccc2)c1` (stereo not given), the survival was inactive: 136%.
Turning to `O=C(c1ccc2c(c1)N(Cc1c(F)cccc1Cl)C(=O)c1ccccc1S2)N1CCOCC1`, the survival is inactive: 94%.
As for `CCOC(=O)N1CCN(Cc2nc3cc(NC(=O)C(C)C)ccc3n2C(C)C)CC1`, the survival is inactive: 96%.
For `CCCNC(=O)c1ccc(-c2nc(CS(=O)(=O)c3ccc(C)cc3)c(C)o2)cc1`, the survival was inactive: 65%.

These data come from PubChem BioAssay AID463173 (ICCB-Longwood Screening Facility, Harvard Medical School, 2010).
